Laboratory results from patent US20240239885A1, “ANTIBODY CONJUGATE COMPRISING ANTI-P-CADHERIN ANTIBODY AND USES THEREOF” (WUXI BIOLOGICS IRELAND LIMITED, priority 2021, published 2024).

Columns and labels:
[1] = target: T1, human P-cadherin expressing NCI-H1650 cells (Homo sapiens, UniProt P22223); assay: Target binding (FACS) on NCI-H1650 cells
T1 construct: endogenous in cells; host or cells: NCI-H1650
Procedure: Binding of the ADCs to P-cadherin expressed on HCT-116 cells was determined by flow cytometry analysis using the same procedure as described above. In brief, HCT-116 or NCI-H1650 cells were harvested with Versene (Invitrogen, #15040066) and diluted to 1×10^6 cells/ml in 1% BSA (Bovogen, #BSAS)/1×PBS (Ca+/Mg+) (Gibco, #14040-117). 1×10^5 cells/well (100 μL) were added to each well of a 96-well U-plate (Corning, #3799) and centrifuged at 1500 rpm (Eppendorf, #5810R) for 5 minutes before removing the supernatant. Antibodies serially diluted in 1% BSA/1×PBS (Ca+/Mg+) were added at 100 μL/well to the pelleted cells and incubated at 4° C. for 1 hour. A non-related hlgG1 antibody was used as an isotype control. Cells were washed two times with 180 μL/well of 1% BSA/1×PBS (Ca+/Mg+) by centrifugation at 1500 rpm for 5 minutes at 4° C. […] After the final wash, cells were resuspended in 100 μL 1% BSA/1×PBS (Ca+/Mg+) and fluorescence values were measured with a FACS Canto II cytometer (BD Biosciences). The amount of cell surface bound anti-P-Cadherin antibody was assessed by measuring the mean fluorescence (MFI). The FACS raw data were analyzed by FlowJo software, wells containing no antibody or secondary antibody only were used to establish background fluorescence.

A204 = assay: Non-specific binding (FACS) on A204; set-up: species or system human; conditions: A204, 10 μg/mL
Procedure: (§1) Human cell lines were seeded in 96-well plates (BD) at a density of 1×10^5 cells/well. 10 μg/mL antibody samples were added to cells and incubated for 1 h at 4° C. After washing, the cells were resuspended and incubated with PE-conjugated goat anti-human IgG Fc antibody (Jackson) for 30 min. After washing and resuspending, mean fluorescence intensity (MFI) was measured by flow cytometry (BD Canto II) and analyzed by FlowJo.

12 human cell lines = assay: Non-specific binding (FACS), panel conclusion; conditions: 10 μg/mL
Procedure: as §1

HCC70 breast tumor = assay: Xenografted HCC70 breast tumor model, Study II; type: in vivo, SCID-17B female mice; conditions: for TGI (%), Day 36: intravenous, vs Isotype control; for TGI (%), Day 36 / Tumor free, n/total: single dose; for Tumor free, n/total: Day 36
Procedure: Ti is the average tumor volume of a treatment group on a given day. TO is the average tumor volume of the treatment group on the first day of treatment. Vi is the average tumor volume of the vehicle control group on the same day with Ti and V0 is the average tumor volume of the vehicle group on the first day of treatment. Relative change of bodyweight change (RCBW) was calculated with the formula [(BWt−BW0)/BW0]×100%, BW0 is the average bodyweight at day0, BWt is the average bodyweight at a measurement day. […] Data at day 34 were analyzed using Ordinary one-way ANOVA Tukey's multiple comparisons test with Graphpad Prism 6.0 and p<0.05 was considered as statistically significant.
WBP3195-p1-ADC in efficacy study was tested in HCC70 breast tumor model in SCID-17B female mice. One hundred female SCID-17B mice (Beijing Vital River Lab Animal Technology Co. Ltd) of 37-38 weeks-old were used in the second study. HCC70 cells were maintained in vitro as a monolayer culture in RIPM1640 medium supplemented with 10% fetal bovine serum and 1% Penicillin-Sreptomycin at 37° C. in an atmosphere of 5% CO2 in air. The tumor cells were routinely sub-cultured twice a week with 0.25% trypsin-EDTA treatment. The cells growing in an exponential growth phase were harvested and counted for tumor inoculation. The harvested cells were re-suspended in PBS at a density of 1.0×10^8 cells/mL then added the equivalent matrigel (final 1.0×10^7 cells/200 μL/mouse) with viability >90% and subcutaneously implanted into the right front flank of animals.
(§2) When the average tumor volume reached approximately 242 mm^3 at day 10 post inoculation, animals were randomly grouped into 4 groups and each group contained 7 mice. […] The day of intravenous injection was considered as day 0. For all tumor studies, mice were weighed and tumor growth was measured twice a week using calipers.

NCI-H1650 lung tumor = assay: Xenografted NCI-H1650 lung tumor model; type: in vivo, SCID-17B female mice; conditions: single dose; for TGI (%) at Day 31: vs PBS
Procedure: WBP3195-p1-ADC in efficacy study was tested in NCI-H1650 lung tumor model in SCID-17B female mice. Female SCID-17B mice (Shanghai Jihui Laboratory Animal Care Co., Ltd.) of 7-9 week-old were used in the study. NCI-H1650 cells were maintained in vitro as a monolayer culture in RIPM1640 medium supplemented with 10% fetal bovine serum, 100 U/mL penicillin and 100 μg/mL streptomycin at 37° C. in an atmosphere of 5% CO2 in air. The tumor cells were routinely sub-cultured twice a week with 0.25% trypsin-EDTA treatment. The cells growing in an exponential growth phase were harvested and counted for tumor inoculation.
as §2, with “For the therapeutic model, each mouse was inoculated subcutaneously at the right front flank with NCI-H1650 tumor cells (0.5×10^7 cells resuspended in 100 ul PBS). When” for “When”, “to 137” for “242”, “day22” for “day 10”, “6” for “7”
All the procedures related to animal handling, care and the treatment in the study were performed according to the guidelines approved by the Institutional Animal Care and Use Committee (IACUC) of Shanghai SIPPR-BK Laboratory Animal Co., Ltd following the guidance of the Association for Assessment and Accreditation of Laboratory Animal Care (AAALAC).

HCC-70 cells = assay: Cytotoxicity assay of ADC (Cell Titer Glo) on HCC-70; conditions: HCC-70, 5 days

T1 sequence (P22223 108-829): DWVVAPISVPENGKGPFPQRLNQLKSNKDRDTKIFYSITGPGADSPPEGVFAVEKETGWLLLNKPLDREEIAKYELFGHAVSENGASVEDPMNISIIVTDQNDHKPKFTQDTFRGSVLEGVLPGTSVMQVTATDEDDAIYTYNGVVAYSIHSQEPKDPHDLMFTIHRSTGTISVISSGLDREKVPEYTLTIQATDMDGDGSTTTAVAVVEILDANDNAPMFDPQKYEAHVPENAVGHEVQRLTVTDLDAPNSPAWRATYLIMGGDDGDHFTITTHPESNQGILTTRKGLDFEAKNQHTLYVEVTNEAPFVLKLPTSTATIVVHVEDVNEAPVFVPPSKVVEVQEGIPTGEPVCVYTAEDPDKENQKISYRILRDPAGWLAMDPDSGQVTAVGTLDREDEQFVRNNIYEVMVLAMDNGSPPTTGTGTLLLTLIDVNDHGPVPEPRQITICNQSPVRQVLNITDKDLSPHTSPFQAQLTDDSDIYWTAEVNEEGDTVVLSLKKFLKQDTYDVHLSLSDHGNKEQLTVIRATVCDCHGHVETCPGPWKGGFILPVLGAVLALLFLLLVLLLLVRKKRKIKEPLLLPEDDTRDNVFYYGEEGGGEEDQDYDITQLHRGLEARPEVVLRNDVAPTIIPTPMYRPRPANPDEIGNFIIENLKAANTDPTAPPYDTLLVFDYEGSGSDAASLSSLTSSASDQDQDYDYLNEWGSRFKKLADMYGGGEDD

B1: W3195-1.53.1-p1-uIgG1L-MMAE (conjugate)
heavy: QVQLQESGPGLVKPSETLSLTCTVSGGSVISDNYYWTWVRQPPGKGLEFIGYIYYRGSTNYNPSLKNRVIISIDTSRNQFSLDLNSVTAADTAVYYCARDRRTGNSLPFDNWGQGTLVTVSSASTKGPSVFPLAPSSKSTSGGTAALGCLVKDYFPEPVTVSWNSGALTSGVHTFPAVLQSSGLYSLSSVVTVPSSSLGTQTYICNVNHKPSNTKVDKRV[human IgG1 Fc not written out]
light: SYELTQPPSVSVSPGQTAQITCSGDKLGDKFASWYQQKSGQSPVVVIYQDNKRPSGFPERFSGSNSGNTATLTISGTQAMDEADYYCQAWDSSIVVFGGGTKLTVLGQPKAAPSVTLFPPSSEELQANKATLVCLISDFYPGAVTVAWKADSSPVKAGVETTTPSKQSNNKYAASSYLSLTPEQWKSHRSYSCQVTHEGSTVEKTVAPTECS
Max MFI, FACS binding [1]: 3005 | MFI, non-specific binding (A204): 29.4 | non-specific binding to human cell lines (in words) (12 human cell lines): no non-specific binding effect | TGI (%), Day 36 (HCC70 breast tumor; 0.5 mg/kg): 62.06% | Tumor free, n/total (HCC70 breast tumor; 0.5 mg/kg): 0/6 | tumor free animals observed (HCC70 breast tumor; 2.5 mg/kg, day36 post treatment): 5 | TGI (%), Day 36 (HCC70 breast tumor; 2.5 mg/kg): 122.67% | Tumor free, n/total (HCC70 breast tumor; 2.5 mg/kg): 5/6 | mean tumor volume, 31 days post treatment (NCI-H1650 lung tumor; 2.5 mg/kg, intravenous): 1124.80 ± 132.22 mm3 | TGI (%) at Day 31 (NCI-H1650 lung tumor; 2.5 mg/kg, intravenous): 38.69% | Tumor free (TV <20 mm^3) at Day 31, n/total (NCI-H1650 lung tumor; 2.5 mg/kg): 0/6 | average tumor volume, 31 days post treatment (NCI-H1650 lung tumor; 5 mg/kg, intravenous): 9.92 ± 3.20 mm3 | TGI (%) at Day 31 (NCI-H1650 lung tumor; 5 mg/kg, intravenous): 107.99% | Tumor free (TV <20 mm^3) at Day 31, n/total (NCI-H1650 lung tumor; 5 mg/kg): 5/6 | tumor free animals observed (NCI-H1650 lung tumor; 5 mg/kg): One tumor free animal | Max Inh % (HCC-70 cells): 90.7%
